Results as given in the supplement of paper PMC4967469.
Lines with a small IC50 respond at low doses; where the fit passes the top or lowest dose, that dose stands as a limit. AUC, from the same fit, is the share of area under the viability curve across the 256-fold dose range; values near 1 show little effect. An inferred top dose was derived from the fitted curves, not read from the paper. For part of these data: An entry number marks a drug with two screens in the source, which often give different values.

Legend:
Assay in all cases: Viability of human cancer cell lines after 72 h of drug (GDSC screen)
[1] = compound: Cc1cc([C@@H](C)Nc2ccccc2C(=O)O)c2nc(N3CCOCC3)cc(=O)n2c1 [AZD6482]
Method: (§1)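 Human cancer cell lines in 384-well plates, medium with 10% serum, drug for 72 h over a 256-fold dose range (nine 2-fold or five 4-fold steps up to the top dose). Adherent lines were fixed and stained with the nucleic acid dye Syto60, suspension lines read with resazurin; signal relative to control wells, capped at 0 and 100%. One two-parameter sigmoid per drug and line, fitted in a mixed model over all curves with the slope shared within a line.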

[2] = compound: NS(=O)(=O)OC[C@@H]1C[C@@H](n2ccc3c(N[C@H]4CCc5ccccc54)ncnc32)C[C@@H]1O [MLN4924]; settings: top dose 1 µM; top dose inferred
Method: as §1

[3] = compound: Cn1ncnc1[C@H]1c2n[nH]c(=O)c3cc(F)cc(c23)N[C@@H]1c1ccc(F)cc1 [BMN-673]; settings: top dose 10 µM; top dose inferred
Method: as §1

[4] = top dose 5 µM, screen: GDSC drug entry 1066, top dose inferred
[5] = top dose 5.12 µM, screen: GDSC drug entry 156

Row | Cell Line | AUC [1, 4] | IC50 [1, 4] [µM] | AUC [1, 5] | IC50 [1, 5] [µM] | AUC [2] | IC50 [2] [µM] | AUC [3] | IC50 [3] [µM]
1 | SW900 (lung squamous cell carcinoma, adherent) | 0.922 | > 5 | 0.912 | > 5.12 | 0.878 | > 1 | 0.913 | > 10
2 | SK-HEP-1 (liver, adherent) | 0.947 | > 5 | 0.916 | > 5.12 | 0.642 | 0.15 | 0.772 | 3.62
3 | ML-1 (thyroid, adherent) | 0.975 | > 5 | 0.972 | > 5.12 | 0.937 | > 1 | 0.861 | > 10
4 | LOUCY (T-cell lymphoblastic leukaemia, suspension) | 0.916 | > 5 | 0.944 | > 5.12 | 0.929 | > 1 | 0.982 | > 10
5 | P12-ICHIKAWA (T-cell lymphoblastic leukaemia, suspension) | 0.994 | > 5 | 0.954 | > 5.12 | 0.914 | 0.867 | 0.915 | 8.8
6 | NCI-H661 (large cell lung carcinoma, adherent) | 0.813 | 3.44 | 0.928 | > 5.12 | 0.908 | > 1 | 0.854 | > 10
7 | COLO-792 (melanoma, adherent) |  |  | 0.951 | > 5.12 | 0.894 | > 1 | 0.938 | > 10
8 | IMR-5 (neuroblastoma, adherent) | 0.988 | > 5 | 0.992 | > 5.12 | 0.945 | > 1 | 0.487 | 0.579
9 | SK-MEL-24 (melanoma, adherent) |  |  | 0.978 | > 5.12 | 0.88 | > 1 | 0.816 | 7.13
10 | ECC10 (stomach, suspension) | 0.877 | > 5 | 0.949 | > 5.12 | 0.6 | 0.119 | 0.913 | > 10
11 | EB2 (Burkitt lymphoma, suspension) | 0.99 | > 5 | 0.743 | 1.46 | 0.848 | 0.638 | 0.854 | 6.74
12 | CTB-1 (B-cell lymphoma, suspension) | 0.914 | > 5 | 0.842 | > 5.12 | 0.962 | > 1 | 0.917 | > 10
13 | YT (lymphoid neoplasm, suspension) | 0.401 | 0.175 | 0.331 | 0.118 | 0.91 | > 1 | 0.992 | > 10
14 | OPM-2 (myeloma, suspension) | 0.994 | > 5 | 0.971 | > 5.12 | 0.984 | > 1 | 0.993 | > 10
15 | OCUM-1 (stomach, adherent) | 0.966 | > 5 | 0.976 | > 5.12 | 0.916 | > 1 | 0.747 | 3.52
16 | OCI-AML2 (acute myeloid leukaemia, suspension) | 0.994 | > 5 | 0.991 | > 5.12 | 0.656 | 0.15 | 0.459 | 0.497

Row | Cell Line | AUC [1, 4] | IC50 [1, 4] [µM] | AUC [1, 5] | IC50 [1, 5] [µM] | AUC [2] | IC50 [2] [µM] | AUC [3] | IC50 [3] [µM]
17 | HDQ-P1 (breast, adherent) | 0.892 | > 5 | 0.876 | > 5.12 | 0.947 | > 1 | 0.976 | > 10
18 | LAMA-84 (chronic myeloid leukaemia, suspension) | 0.954 | > 5 | 0.974 | > 5.12 | 0.967 | > 1 | 0.985 | > 10
19 | PF-382 (T-cell lymphoblastic leukaemia, suspension) | 0.975 | > 5 | 0.91 | > 5.12 | 0.99 | > 1 | 0.99 | > 10
20 | 697 (lymphoblastic leukaemia, suspension) | 0.845 | 2.58 | 0.869 | 3.21 | 0.884 | 0.713 | 0.117 | 0.0553
21 | HCC-827 (lung adenocarcinoma, adherent) |  |  | 0.923 | > 5.12 | 0.973 | > 1 | 0.952 | > 10
22 | T98G (glioma, adherent) | 0.893 | > 5 | 0.844 | 3.26 | 0.887 | 0.974 | 0.747 | 2.99
23 | D-502MG (glioma, adherent) | 0.868 | > 5 | 0.943 | > 5.12 | 0.735 | 0.433 | 0.707 | 3.35
24 | CAKI-1 (kidney, adherent) | 0.784 | 3.38 | 0.712 | 1.74 | 0.912 | > 1 | 0.817 | 9.68
25 | PSN1 (pancreas, adherent) | 0.973 | > 5 | 0.991 | > 5.12 | 0.908 | > 1 | 0.606 | 1.16
26 | Raji (Burkitt lymphoma, suspension) | 0.983 | > 5 | 0.97 | > 5.12 | 0.835 | 0.598 | 0.605 | 1.19
27 | T-T (oesophagus, adherent) | 0.813 | 2.68 | 0.905 | > 5.12 | 0.515 | 0.0688 | 0.899 | > 10
28 | OAW-42 (ovary, adherent) | 0.899 | > 5 | 0.963 | > 5.12 | 0.793 | 0.501 | 0.708 | 2.56
29 | EW-13 (Ewing sarcoma, suspension) | 0.958 | > 5 | 0.867 | > 5.12 | 0.964 | > 1 | 0.919 | > 10
30 | SNU-423 (liver, adherent) | 0.889 | > 5 | 0.678 | 1.1 | 0.937 | > 1 | 0.89 | > 10
31 | SISO (cervix, adherent) |  |  | 0.907 | > 5.12 | 0.616 | 0.128 | 0.702 | 2.25
